Source: the supplement of paper PMC8728848
Some of the results follow.

Assays:
Assay in all cases: glycan array binding signal (z-score within array); higher = stronger binding
Conditions in all cases: glycan notation: IUPAC condensed, linker removed
[1] = target: Gal(a1-3)Gal(b1-4)[Fuc(a1-3)]GalNAc
Method in brief: (§1)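 Glycan array data came from 3228 arrays in the Consortium for Functional Glycomics database, and only arrays with an available protein sequence were kept. Glycan names were put into IUPAC-condensed notation, and columns mapping to the same glycan were averaged. The binding signal is a within-array Z-score, averaged across arrays of one protein sequence run at different concentrations or buffers and across linkers. A negative Z-score can be read as non-binding.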

[2] = target: Gal(a1-3)Gal(b1-4)[Fuc(a1-3)]GlcNAc
Method in brief: as §1

[3] = target: Gal(a1-3)Gal(b1-4)[Fuc(a1-3)]GlcNAc(b1-2)Man(a1-3)[Gal(a1-3)Gal(b1-4)[Fuc(a1-3)]GlcNAc(b1-2)Man(a1-6)]Man(b1-4)GlcNAc(b1-4)GlcNAc
Method in brief: as §1

[4] = target: Gal(a1-3)GalNAc
Method in brief: as §1

[5] = target: Gal(a1-3)GlcNAc
Method in brief: as §1

[6] = target: Gal(a1-3)[Gal(a1-4)]Gal(b1-4)GlcNAc
Method in brief: as §1

[7] = target: Gal(a1-4)Gal(b1-3)GlcNAc(b1-2)Man(a1-3)[Gal(a1-4)Gal(b1-3)GlcNAc(b1-2)Man(a1-6)]Man(b1-4)GlcNAc(b1-4)GlcNAc
Method in brief: as §1

[8] = target: Gal(a1-4)Gal(b1-4)Gal
Method in brief: as §1

[9] = target: Gal(a1-4)Gal(b1-4)GalNAc
Method in brief: as §1

[10] = target: Gal(a1-4)Gal(b1-4)Glc
Method in brief: as §1

[11] = target: Gal(a1-4)Gal(b1-4)GlcNAc
Method in brief: as §1

[12] = target: Gal(a1-4)Gal(b1-4)GlcNAc(b1-2)Man(a1-3)[Gal(a1-4)Gal(b1-4)GlcNAc(b1-2)Man(a1-6)]Man(b1-4)GlcNAc(b1-4)GlcNAc
Method in brief: as §1

[13] = target: Gal(a1-4)Gal(b1-4)GlcNAc(b1-3)Gal(b1-4)Glc
Method in brief: as §1

[14] = target: Gal(a1-4)GlcNAc
Method in brief: as §1

[15] = target: Gal(a1-6)Glc
Method in brief: as §1

[16] = target: Gal(b1-2)Gal
Method in brief: as §1

[17] = target: Gal(b1-3)Gal
Method in brief: as §1

[18] = target: Gal(b1-3)Gal(b1-4)GlcNAc
Method in brief: as §1

[19] = target: Gal(b1-3)GalNAc
Method in brief: as §1

[20] = target: Gal(b1-3)GalNAc(a1-3)[Fuc(a1-2)]Gal(b1-4)Glc
Method in brief: as §1

[21] = target: Gal(b1-3)GalNAc(a1-3)[Fuc(a1-2)]Gal(b1-4)GlcNAc
Method in brief: as §1

[22] = target: Gal(b1-3)GalNAc(b1-3)Gal
Method in brief: as §1

[23] = target: Gal(b1-3)GalNAc(b1-3)Gal(a1-4)Gal(b1-4)Glc
Method in brief: as §1

[24] = target: Gal(b1-3)GalNAc(b1-3)Gal(b1-4)Glc
Method in brief: as §1

[25] = target: Gal(b1-3)GalNAc(b1-3)Gal(b1-4)GlcNAc
Method in brief: as §1

[26] = target: Gal(b1-3)GalNAc(b1-4)Gal(b1-4)Glc
Method in brief: as §1

[27] = target: Gal(b1-3)GalNAc(b1-4)[Neu5Ac(a2-3)]Gal(b1-4)Glc
Method in brief: as §1

[28] = target: Gal(b1-3)GlcNAc
Method in brief: as §1

[29] = target: Gal(b1-3)GlcNAc(a1-3)Gal(b1-4)GlcNAc
Method in brief: as §1

[30] = target: Gal(b1-3)GlcNAc(a1-6)Gal(b1-4)GlcNAc
Method in brief: as §1

[31] = target: Gal(b1-3)GlcNAc(b1-2)Man
Method in brief: as §1

[32] = target: Gal(b1-3)GlcNAc(b1-2)Man(a1-3)[Gal(b1-3)GlcNAc(b1-2)Man(a1-6)]Man(b1-4)GlcNAc(b1-4)GlcNAc
Method in brief: as §1

[33] = target: Gal(b1-3)GlcNAc(b1-2)Man(a1-3)[Gal(b1-3)GlcNAc(b1-2)Man(a1-6)]Man(b1-4)GlcNAc(b1-4)[Fuc(a1-6)]GlcNAc
Method in brief: as §1

[34] = target: Gal(b1-3)GlcNAc(b1-2)Man(a1-3)[GlcNAc(b1-4)][Gal(b1-3)GlcNAc(b1-2)Man(a1-6)]Man(b1-4)GlcNAc(b1-4)GlcNAc
Method in brief: as §1

[35] = target: Gal(b1-3)GlcNAc(b1-2)[Gal(b1-3)GlcNAc(b1-6)]Man(a1-6)[Gal(b1-3)GlcNAc(b1-2)Man(a1-3)]Man(b1-4)GlcNAc(b1-4)GlcNAc
Method in brief: as §1

[36] = target: Gal(b1-3)GlcNAc(b1-3)Gal(b1-3)GlcNAc
Method in brief: as §1

[37] = target: Gal(b1-3)GlcNAc(b1-3)Gal(b1-4)Glc
Method in brief: as §1

[38] = target: Gal(b1-3)GlcNAc(b1-3)Gal(b1-4)GlcNAc
Method in brief: as §1

[39] = target: Gal(b1-3)GlcNAc(b1-3)Gal(b1-4)GlcNAc(b1-2)Man(a1-3)[Gal(b1-3)GlcNAc(b1-3)Gal(b1-4)GlcNAc(b1-2)Man(a1-6)]Man(b1-4)GlcNAc(b1-4)GlcNAc
Method in brief: as §1

[40] = target: Gal(b1-3)GlcNAc(b1-3)Gal(b1-4)GlcNAc(b1-2)[Gal(b1-3)GlcNAc(b1-3)Gal(b1-4)GlcNAc(b1-6)]Man(a1-6)[Gal(b1-3)GlcNAc(b1-3)Gal(b1-4)GlcNAc(b1-2)Man(a1-3)]Man(b1-4)GlcNAc(b1-4)[Fuc(a1-6)]GlcNAc
Method in brief: as §1

[41] = target: Gal(b1-3)GlcNAc(b1-3)Gal(b1-4)GlcNAc(b1-3)Gal(b1-4)GlcNAc(b1-2)[Gal(b1-3)GlcNAc(b1-3)Gal(b1-4)GlcNAc(b1-3)Gal(b1-4)GlcNAc(b1-6)]Man(a1-6)[Gal(b1-3)GlcNAc(b1-3)Gal(b1-4)GlcNAc(b1-3)Gal(b1-4)GlcNAc(b1-2)Man(a1-3)]Man(b1-4)GlcNAc(b1-4)[Fuc(a1-6)]GlcNAc
Method in brief: as §1

[42] = target: Gal(b1-3)GlcNAc(b1-3)Gal(b1-4)GlcNAc(b1-6)[Gal(b1-3)GlcNAc(b1-3)]Gal(b1-4)Glc
Method in brief: as §1

[43] = target: Gal(b1-3)GlcNAc(b1-3)Gal(b1-4)[Fuc(a1-3)]GlcNAc
Method in brief: as §1

[44] = target: Gal(b1-3)GlcNAc(b1-3)Gal(b1-4)[Fuc(a1-3)]GlcNAc(b1-6)[Gal(b1-3)GlcNAc(b1-3)]Gal(b1-4)Glc
Method in brief: as §1

[45] = target: Gal(b1-3)GlcNAc(b1-3)GalNAc
Method in brief: as §1

B1: LTL (Lotus tetragonolobus), P19664 (protein)
chain: VSFNYTEFKDDGSLILQGDAKIWTDGRLAMPTDPLVNNPKTTRSAGRALYATPVPIWDSATGNVASFVTSFNFLFVIRELKYTPTDGLVFFLAPVGTEIPSGSTGGFLGIFDGSNGFNQFVAVEFDSYHNIWDPKSLRSSHVGIDVNSIMSLKAVNWNRVSGSLEKATIIYDSQTNILSVVMTSQNGQITTIYGTIDLKTVLPEKVSVGFSATTGNPEREKHDIYSWSFTSTLKEPEEQA
[1]
  glycan array binding signal (z-score): -0.905
[2]
  glycan array binding signal (z-score): -0.209
[3]
  glycan array binding signal (z-score): 0.006
[4]
  glycan array binding signal (z-score): -0.184
[5]
  glycan array binding signal (z-score): -0.462
[6]
  glycan array binding signal (z-score): 0.149
[7]
  glycan array binding signal (z-score): -0.235
[8]
  glycan array binding signal (z-score): -0.525
[9]
  glycan array binding signal (z-score): -0.433
[10]
  glycan array binding signal (z-score): -0.09
[11]
  glycan array binding signal (z-score): -0.162
[12]
  glycan array binding signal (z-score): 0.224
[13]
  glycan array binding signal (z-score): -0.102
[14]
  glycan array binding signal (z-score): -0.262
[15]
  glycan array binding signal (z-score): -0.261
[16]
  glycan array binding signal (z-score): -0.208
[17]
  glycan array binding signal (z-score): -0.325
[18]
  glycan array binding signal (z-score): -0.185
[19]
  glycan array binding signal (z-score): -0.115
[20]
  glycan array binding signal (z-score): -0.041
[21]
  glycan array binding signal (z-score): -0.261
[22]
  glycan array binding signal (z-score): -0.295
[23]
  glycan array binding signal (z-score): 0.007
[24]
  glycan array binding signal (z-score): -0.372
[25]
  glycan array binding signal (z-score): 0.163
[26]
  glycan array binding signal (z-score): 0.163
[27]
  glycan array binding signal (z-score): -0.124
[28]
  glycan array binding signal (z-score): -0.211
[29]
  glycan array binding signal (z-score): -0.34
[30]
  glycan array binding signal (z-score): -0.022
[31]
  glycan array binding signal (z-score): 0.121
[32]
  glycan array binding signal (z-score): 0.015
[33]
  glycan array binding signal (z-score): 0.108
[34]
  glycan array binding signal (z-score): -0.218
[35]
  glycan array binding signal (z-score): 0.022
[36]
  glycan array binding signal (z-score): 0.056
[37]
  glycan array binding signal (z-score): -0.217
[38]
  glycan array binding signal (z-score): -0.32
[39]
  glycan array binding signal (z-score): -0.31
[40]
  glycan array binding signal (z-score): 0.015
[41]
  glycan array binding signal (z-score): 0.251
[42]
  glycan array binding signal (z-score): -0.126
[43]
  glycan array binding signal (z-score): -0.347
[44]
  glycan array binding signal (z-score): -0.202
[45]
  glycan array binding signal (z-score): -0.141
